Source: PubChem BioAssay AID493208 (National Center for Advancing Translational Sciences (NCATS), 2011)
Out of some 44,000 compounds screened, about 340 (0.77%) were called active. Not shown: some 5% with an inconclusive outcome. The call rests on the fitted dose curve; in most records, active means well fitted inhibition curve with a large enough effect; inconclusive means small, poorly fitted or top-dose-only effect; inactive means flat fitted curve, though single readings scatter. The list shows a part of the results.

Assay: Acumen qHTS Assay for Inhibitors of the mTORC1 Signaling Pathway in MEF (Tsc2-/-, p53-/-) Cells: Sytravon;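 further: plate controls were DMSO for no effect and rapamycin for full effect; nearly all actives have a fitted effect of over 50% in size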
Details: phospho-rpS6 immunofluorescence/PI, 24 h; series mostly up to 38.3 µM; activity change, negative = inhibition: at the top concentration
Summary of the method: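 Readout is phospho-S6 Alexa 488 signal normalized to PI per well, reported as % active cells with thresholds set from rapamycin (7.5 nM) and DMSO controls. Cells: Tsc2-/-, p53-/- MEFs, 24 hrs compound at 37 C; PI cell number serves as viability.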

Activity change, negative = inhibition, inactive:
CCc1nc2nc(C)cc(Nc3ccc(OC)cc3)n2n1 -3.09%
CN(C1CCCCC1)S(=O)(=O)c1ccc2c(c1)c(=O)c(C(=O)NCCc1ccc(Cl)cc1)cn2C -2.54%
Cc1ccc(-c2nnc(Nc3cccc(Cl)c3)c3ccccc23)cc1S(=O)(=O)NCC1CCCO1 (stereo not given) -3.75%
CSCCC(NS(=O)(=O)c1ccc2c(c1)oc(=O)n2C)C(=O)NCCc1ccc(C)cc1 (stereo not given) -4.94%
O=S(=O)(NCCSc1nnnn1-c1ccccc1)c1ccc(F)cc1 2.72%
Cc1ccc(-c2onc(C)c2C)cc1S(=O)(=O)NCc1ccco1 0%
COc1cccc(OCCCCn2c(-c3ccc(Cl)cc3)nc3ccccc3c2=O)c1 6.93%
O=C(c1cccc([N+](=O)[O-])c1)N1c2ncnn2C2(CCCCC2)[C@@H]2CCCC[C@@H]21 -11.3%
CC(=O)Nc1ccc(S(=O)(=O)NC2(C(F)(F)F)NC(=O)N(c3ccc(C)cc3)C2=O)cc1 (stereo not given) -3%
CCOc1cc(C(=O)Nc2cccc(-c3nc4ccccc4o3)c2)cc(OCC)c1OCC -13.9%
Cc1ccc(S(=O)(=O)c2cnc(SCC(=O)Nc3ccc4c(c3)OCCO4)[nH]c2=O)cc1 0.119%
Cc1cc(Nc2ccc(C)c(C)c2)n2cnnc2n1 -2.03%
COc1ccc2c(c1)c1c(c(=O)n(-c3ccccc3C)c(=O)n1CC(=O)NCc1ccc(C)cc1)n2C -3.92%
Cc1ccc(S(=O)(=O)c2cnc(SCC(=O)Nc3cc(C)cc(C)c3)nc2N)cc1 -0.818%
CCCCc1ccc(-n2nc3cc(C)c(NC(=O)Cc4ccccc4)cc3n2)cc1 -2.02%
Cc1ccc2cccc(NC(=O)COc3ccccc3[N+](=O)[O-])c2n1 1.03%
COC(=O)c1ccccc1NC(=O)Cn1cc(S(=O)(=O)Cc2ccccc2F)c2ccccc21 1.1%
CCOC(=O)c1c(C)oc2nc(C)nc(NCc3ccccc3Cl)c12 1.1%
CCN(CC)c1ccc(NC(=O)CSc2nnc(C)c(=O)[nH]2)cc1 0.524%
Cc1cccc(CN2C(=O)c3ccccc3Sc3ccc(C(=O)N4CCCC4)cc32)c1 1.56%
CCOC(=O)c1c(NC(=O)COc2ccccc2F)sc2c1CCCC2 -5.83%
CCc1ccc(N(CC)C(=O)c2ccc3c(=O)n4c(nc3c2)CCCCC4)cc1 -0.101%
COC(=O)c1c(-c2cccs2)csc1NC(=O)c1ccc(Cl)cc1 -1.67%
COCCN1C(=O)c2[nH]nc(-c3ccccc3O)c2C1c1ccc(OCc2ccccc2)c(OC)c1 (stereo not given) -13.8%
COc1ccccc1Nc1nn2c(=O)c3ccc(C(=O)NCc4cccs4)cc3nc2s1 -5.43%
COc1ccc(-c2cn3c(n2)sc2cc(C(=O)NCc4ccccc4OC)ccc23)cc1 -3.07%
COC(=O)c1cc(S(=O)(=O)NCC2CCN(Cc3cc(C)ccc3C)CC2)c[nH]1 -6.07%
COc1ccc(N2CCN(C(=O)c3ccc(C)c(NC(=O)c4nsc5ccccc45)c3)CC2)cc1 -12.6%
COc1ccc(OC)c(S(=O)(=O)NCCc2sc(-c3ccc(C)cc3)nc2C)c1 -7.05%
CCOC(=O)c1c(NC(=O)/C=C/c2ccccc2)sc2c1CCCC2 12.6%
Cc1ccc2c(=O)c(C(=O)c3ccc(F)cc3)cn(CC(=O)NCc3ccccc3)c2n1 2.96%
COc1cccc(Cn2c(CNC(=O)C(C)C)nc3cccnc32)c1 2.48%
COc1ccc(C(=O)Nc2ccc(-c3nc4ncccc4o3)cc2)cc1 -0.772%
CC(C)(C)OC(=O)N1CCC(c2c(C(=O)NCc3ccccn3)cnn2-c2ccccc2)CC1 6.13%
O=C(CSc1ncc2c(n1)-c1cc(Cl)ccc1N(Cc1ccccc1)S2(=O)=O)NCCc1ccccc1 0.913%
COc1ccc(NC(=O)c2cccn2-c2nnc(N3CCCCC3)s2)c(OC)c1 2.5%
CCOC(=O)COc1cc(C)c(Cl)cc1C(=O)c1ccn2nc(-c3ccc(OC)cc3)cc2n1 -0.308%
CCc1nn(CC(=O)NCCc2ccc(OC)c(OC)c2)c(=O)c2cc3occc3n12 -2.37%
CCOC(=O)c1ccc(NC(=O)CSc2nc(-c3ccc(F)cc3)cc(C(F)(F)F)c2C#N)cc1 -5.45%
CCOc1ccc(NC(=O)C2=C(C)C(=O)OC23CCC(C)CC3)cc1 (stereo not given) -2.24%
COc1ccccc1NC(=O)c1ccc(-c2nc(COc3ccc(C)cc3)c(C)o2)cc1 -7.06%
Cc1ccc(NC(=O)Nc2c(C)n(C)n(-c3ccccc3)c2=O)c(Cl)c1 -19%
CCOC(=O)c1c(C)[nH]c(C)c1S(=O)(=O)N(C)CC(=O)NCc1ccc(C)cc1 -1.34%
CCOc1cccc(CNC(=O)c2ccc(N3CCCC3)c(NC(=O)Nc3ccccc3CC)c2)c1 0%
COc1ccc(C2CC(=O)c3cc(-c4nc(-c5ccc(C)cc5)cs4)c(=O)[nH]c3C2)cc1 (stereo not given) -0.363%
CC(C)c1ccc(NC(=O)Cc2ccc(NC(=O)N3CCCCc4ccccc43)cc2)cc1 -15.1%
CCC1CN(C(=O)NCc2ccc(F)cc2)c2cc(Cl)ccc2O1 (stereo not given) -17.6%
CCCCOc1ccc(CNC(=O)CN2C(=O)CCn3nc(-c4cn(C)c5ccccc45)cc32)cc1 -17.6%
COc1ccc(NC(=O)C2CCCN(S(=O)(=O)c3c(C)[nH]c(=O)[nH]c3=O)C2)cc1 (stereo not given) 4.02%
COc1cc(OC)c(NC(=O)CC(C)S(=O)(=O)c2ccc3c(c2)NC(=O)CO3)cc1Cl (stereo not given) -7.96%
CCn1cc(S(=O)(=O)c2ccc(OC)cc2)c(=O)c2cc(F)c(N3CCCCCC3)cc21 0.89%
COc1ccc(S(=O)(=O)NCCc2csc(-c3cccc(F)c3)n2)cc1OC -6.1%
CCOc1ccc(/C=C/C(=O)Nc2sc3c(c2C(=O)OC)CCCC3)cc1 -8.27%
Nc1nc(Nc2cccc(Cl)c2)sc1C(=O)c1ccc(F)cc1 -9.03%
COc1ccc(-c2nn(-c3ccc(C)c(Cl)c3)c3c2cnc2cc(OC)c(OC)cc23)cc1 0%
CCN1CCN(c2nc3c(S(=O)(=O)c4ccc(C)cc4)nnn3c3ccsc23)CC1 3.19%
CCN(CC)S(=O)(=O)c1ccc2c(c1)N(CC(=O)NCCc1ccccc1)C(=O)CO2 -0.174%
CCC(Oc1ccccc1)C(=O)Nc1cc(-c2ccccc2F)nn1-c1ccccc1 (stereo not given) -3.07%
CCOc1ccc2nc(N3CCCC(C(=O)Nc4ccc(CC)cc4)C3)sc2c1 (stereo not given) -6.9%
CCc1ccc2oc(-c3cccc(NC(=O)COc4ccccc4Cl)c3)nc2c1 -7.58%
CCOc1ccc(NC(=O)CSc2nc3ccsc3c(=O)n2CC)cc1 -9.3%
COc1cc(NC(=O)C(CC(C)C)N2Cc3ccccc3C2=O)cc(OC)c1 (stereo not given) -0.63%
Cc1ccc(NC(=O)Cn2c(=O)nc(-c3ccccc3)c3ccccc32)cc1 0%
Cc1cccc(C(=O)n2nc(-c3cccnc3)nc2NCc2ccc(F)cc2)c1 -1.25%
Cc1c(C(=O)NCc2cccc(F)c2)oc2c1-c1[nH]ncc1CC2 -1.1%
CCCCOc1ccc(CNC(=O)c2cnc3sc(N4CCCCCC4)nn3c2=O)cc1 -1.41%
CCCCNC(=O)CCn1nc(-c2ccc(Cl)cc2)c2ccccc2c1=O -0.465%
COc1ccc(-c2cc(C)no2)cc1S(=O)(=O)N1CCCC(C)C1 (stereo not given) 4.57%
CC(C)CCNC(=O)c1cc(-c2ccc(Br)s2)nc2ccccc12 -18.5%
Cn1c(=O)[nH]c(=O)c2c1nc(CN1CCN(c3ccccc3)CC1)n2Cc1c(F)cccc1Cl 2.5%
Cc1cccc(NC(=O)c2ccc3[nH]c(C)cc(=O)c3c2)c1 -0.761%
CC(C)(C)c1ccc(C(=O)Nc2ccc(NC(=O)c3ccc(Cl)c(Cl)c3)cc2)cc1 -10.2%
CCC(=O)N1CCc2cc(S(=O)(=O)NC(Cc3ccccc3)C(=O)NCc3ccccc3OC)ccc21 (stereo not given) -8.24%
Cc1cccc(CCNC(=O)c2cc3c(=O)[nH]c4ccc(C)cc4c3s2)c1 -2.75%
COc1ccccc1CNc1nc2ccccc2c2nc(-c3cccc(C)c3)nn12 -3.22%
COc1ccc(-c2nc3sc(CCNC(=O)C(=O)Nc4cc(F)ccc4F)c(C)n3n2)cc1 0.844%
COc1cc([N+](=O)[O-])ccc1NC(=O)N1CCC2(CC1)Nc1ccccc1-n1cccc12 3.3%
COc1ccc2cc3cc(C(=O)N4CCN(c5cccc(C(F)(F)F)c5)CC4)sc3nc2c1 5.25%
CCn1cc(C(=O)NCCN(CC(C)C)CC(C)C)c(=O)c2cc(S(=O)(=O)N(C)C3CCCCC3)ccc21 -11%
CCOCCCn1c(SCC(=O)NCc2ccccc2)nc2c(sc3ccccc32)c1=O -0.996%
Cn1c(=O)n(C)c2cc(N3CCOCC3)c(NC(=O)c3ccc(C(C)(C)C)cc3)cc21 -0.965%
COc1ccc(NC(=O)c2nnn(CC(=O)Nc3cccc(C)c3C)c2N)c(OC)c1 -1.18%
CCCCOc1ccccc1Cn1c(=O)sc2ccccc21 -8.28%
CCOc1ccc(C(=O)Nc2cccc(NC(=O)c3ccc(Cl)cc3Cl)c2)cc1 6.47%
Cc1cccc(NC(=O)CN(C)S(=O)(=O)c2ccc3c(c2)CCC(=O)N3)c1C 4.66%
Cc1ccc(Nc2nc3ccccc3nc2-n2nc(C)cc2C)c(Cl)c1 -3.62%
CCc1cccc(N2C(=O)CS(=O)(=O)C23C(=O)N(Cc2ccccc2)c2ccc(C)cc23)c1 (stereo not given) -3.45%
CSc1ccc(CNC(=O)c2sc3ncnc(N(C)C4CCCCC4)c3c2C)cc1 -0.614%
Cc1cccc(C(=O)N2c3ncnn3C3(CCCCC3)[C@@H]3CCCC[C@@H]32)c1 -9.12%
CCOc1ccc(CN2C(=O)C(=O)c3cccc(C)c32)cc1OC -21.5%
Cc1cccc(Nc2cc(C)nc(-n3nc(C)cc3C)n2)c1 -4.26%
Cc1c(C(=O)Nc2ccc(F)cc2)oc2ccc(S(=O)(=O)N3CCCCCC3)cc12 -4.65%
CCOC(=O)c1cccc(NS(=O)(=O)c2ccc(-c3coc(C)n3)cc2)c1 -16.4%
Cc1cc(C)c(NC(=O)C2CCN(C(=O)N3CCOc4ccccc43)CC2)c(C)c1 -2.09%
COC(=O)c1ccc2c(=O)n(CCc3ccc(S(N)(=O)=O)cc3)c(SCC(=O)C(C)(C)C)nc2c1 -1.66%
